Results published in PubChem BioAssay AID1345082 (National Center for Advancing Translational Sciences (NCATS), 2018).
Out of some 94,000 compounds screened, about 4,000 (4.3%) were called active. Inconclusive means that the source gave no clear call. Such entries were picked first, then a sample of the others. Calls come from the whole dose curve; as a rule, active = well fitted inhibition curve with a large enough effect; inconclusive = small, poorly fitted or top-dose-only effect; inactive = no such curve, though single readings can be large or run the other way. Potencies of inconclusive entries are doubtful fits and often do not repeat.

Test: Cytotoxic Profiling in NIH 3T3 Cell Line of Diverse Libraries Using Quantitative High-Throughput Screening; note: nearly all actives have a fitted effect of over 55% in size
Settings: NIH 3T3 viability, CellTiter-Glo ATP luminescence, 48-72 h; series mostly up to 96.7 µM
Method in brief: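 NIH 3T3 cells at 400 cells/well received 23 nL of compound by pintool and were incubated 48 or 72 h at 37 °C. Viability was read as ATP-coupled CellTiter-Glo luminescence.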
Potency is the fitted concentration of half-maximal effect; tags give direction and shape of the fitted curve.

| SMILES | Potency |
| --- | --- |
| CC1(Cc2ccc3c(c2)OCO3)CCCN(C(=O)c2ccccc2-n2cncn2)C1 (stereo not drawn) | inconclusive: 50.1 µM [inhibitor, partial curve, poor fit] |
| Cc1ccc(CN2CCNC(=O)C2CC(=O)N(CC(C)C)CC(C)C)cc1 (stereo not drawn) | inconclusive: 56.2 µM [inhibitor, partial curve, poor fit] |
| CCn1c(C2CCN(S(=O)(=O)c3cccc(Br)c3)CC2)nn(C)c1=O | inconclusive: 44.7 µM [inhibitor, partial curve, poor fit] |
| O=C1CCN(CC(O)COCc2ccco2)c2ccccc2CCN1CC1CC1 (stereo not drawn) | inconclusive: 12.6 µM [inhibitor, partial curve, poor fit] |
| CC(=O)NC1(C)CCCN(Cc2cccc(-c3ccc4c(ccn4C)c3)c2)C1 (stereo not drawn) | active: 79.4 µM |
| COc1ccc(C(=O)NCCC2CCN(C(=O)Nc3ccc(C)c(F)c3)CC2)cc1 | inconclusive: 44.7 µM [inhibitor, partial curve, poor fit] |
| COc1ccc(C2Cn3nnc(-c4noc(-c5ccc(C)s5)n4)c3CO2)cc1 (stereo not drawn) | inactive |
| COc1ccccc1-c1cnc(Nc2cncnc2)c2c1CCO2 | inconclusive: 79.4 µM [inhibitor, partial curve] |
| COc1ccc(-c2cc(-c3ccccc3O)cn3cncc23)cc1 | inconclusive: 20 µM [inhibitor, partial curve, poor fit] |
| CC(C)(Oc1nn(Cc2cccc(Cl)c2)c2ccccc12)C(=O)NCc1cnccn1 | inconclusive: 56.2 µM [inhibitor, partial curve, poor fit] |
| CCCCNC(=O)C1CCN(C(=O)c2ncn3c2COC(c2ccc(F)cc2)C3)CC1 (stereo not drawn) | inactive |
| COc1ccccc1-c1[nH]nc2ncc(C(=O)NCC3CC3)nc12 | inconclusive: 22.4 µM [inhibitor, full curve, poor fit] |
| O=c1c2nc(-c3cccc(O)c3)ccc2ncn1-c1ccccc1 | active: 8.91 µM |
| COc1ccc(-c2noc([C@@H]3CCCN3C(=O)Cc3cccc(F)c3)n2)cc1OC | inconclusive: 56.2 µM [inhibitor, partial curve, poor fit] |
| Cc1nn2c(c1-c1ccccc1OCc1ccccc1)N(Cc1ccc(C(=O)O)s1)CCC2 | active: 31.6 µM |
| OCCC1CN(c2nccc(-c3ccccn3)n2)CCN1Cc1ccoc1 (stereo not drawn) | inactive |
| COC(=O)c1ccc(N2CCN(C(=O)Cn3nnnc3CN(C)C(C)C)CC2)cc1 | inconclusive: 79.4 µM [inhibitor, partial curve, poor fit] |
| COc1ccc(C(=O)NC[C@H]2O[C@H](Cc3cc(-c4ccccc4)on3)CC[C@@H]2O)cc1 | inconclusive: 112 µM [inhibitor, partial curve, poor fit] |
